Article PMC9300702
No constants are given. Whether binding was seen depends on the method and setting. For some assays here: Binding seen in cells or lysates may run through a third protein. Some binding calls cover weakened binding; strength is not graded here. For some assays here: Tags and fused reporters may be left off the sequences shown. Values belong to the binder of their own block, whether it stands above or below them.

By UniProt entry, the sequences of proteins in these tests, tags left out. Where a name states a change or a piece, a line headed by the entry shows the natural chain unless it says otherwise. Chains listed by the source or under a name are the forms on record and can include a tag or linker. Residues count along the entry.
UniProt O14786: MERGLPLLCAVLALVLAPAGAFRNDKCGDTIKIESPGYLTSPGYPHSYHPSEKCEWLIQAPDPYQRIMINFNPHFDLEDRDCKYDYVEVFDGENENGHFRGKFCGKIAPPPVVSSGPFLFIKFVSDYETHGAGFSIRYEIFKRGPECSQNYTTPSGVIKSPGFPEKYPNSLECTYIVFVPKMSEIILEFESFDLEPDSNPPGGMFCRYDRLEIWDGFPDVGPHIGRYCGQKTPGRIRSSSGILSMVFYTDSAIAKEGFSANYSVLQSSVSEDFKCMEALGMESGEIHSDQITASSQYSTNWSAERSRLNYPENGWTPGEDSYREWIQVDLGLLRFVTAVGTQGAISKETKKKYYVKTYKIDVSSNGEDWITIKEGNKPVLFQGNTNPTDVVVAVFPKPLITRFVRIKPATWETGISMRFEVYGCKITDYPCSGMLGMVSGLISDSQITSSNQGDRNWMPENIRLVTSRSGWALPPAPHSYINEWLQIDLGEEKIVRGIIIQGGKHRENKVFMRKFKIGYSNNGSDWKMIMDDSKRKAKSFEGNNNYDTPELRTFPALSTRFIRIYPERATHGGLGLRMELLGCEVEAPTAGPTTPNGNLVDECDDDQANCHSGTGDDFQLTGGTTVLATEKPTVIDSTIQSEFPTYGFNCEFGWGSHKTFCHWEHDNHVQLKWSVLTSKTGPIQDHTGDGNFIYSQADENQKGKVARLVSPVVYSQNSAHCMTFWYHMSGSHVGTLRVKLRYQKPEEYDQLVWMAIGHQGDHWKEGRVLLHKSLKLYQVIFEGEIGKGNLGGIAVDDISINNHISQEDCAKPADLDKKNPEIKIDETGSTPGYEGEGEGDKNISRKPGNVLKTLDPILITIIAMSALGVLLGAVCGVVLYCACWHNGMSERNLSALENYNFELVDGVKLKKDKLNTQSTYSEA
Neuropilin 1 (endogenous) (human (endogenous in primary umbilical artery ECs)): residues 22-923 of O14786
recombinant Fc-tagged whole extracellular portion of human NRP1: residues 22-856 of O14786

Assays:
[1] = molecular target: recombinant Fc-tagged whole extracellular portion of human NRP1 (human) (UniProt O14786); assay: pull-down; 2 µg NRP1-Fc held on agarose-conjugated anti-NRP1 antibody (1 µg) with 2 µg VE-cadherin-Fc or IgG1-Fc alone, 2 h at 4 °C, 25 mM Tris-HCl pH 7.4, 100 mM NaCl, 5 mM CaCl2; western blot; both purified
[2] = molecular target: Neuropilin 1 (endogenous) (human (endogenous in primary umbilical artery ECs)) (UniProt O14786); assay: co-IP; lysates of unstimulated ECs immunoprecipitated with anti-NRP1 Ab or control non-immune IgGs, western blot with anti-WARS Ab; all proteins endogenous
[3] = molecular target: Neuropilin 1 (endogenous) (human (endogenous in primary umbilical artery ECs)) (UniProt O14786); assay: co-IP; unstimulated ECs incubated live with mouse mAb to the extracellular domain of NRP1 (R&D MAB3870) or control IgGs for 10 min at 37 °C, lysed (1% NP-40, 150 mM NaCl), protein A/G-Sepharose, western blot; all proteins endogenous
[4] = molecular target: recombinant Fc-tagged whole extracellular portion of human NRP1 (human) (UniProt O14786); assay: pull-down; 0.1 µg NRP1-Fc or IgG1-Fc on protein G Dynabeads, incubated with 0.5 µg tag-free FL-, mini- or T2-WARS 2 h at 4 °C; washes in 50 mM Tris-HCl, 150 mM NaCl, 1% Triton X-100, 5 mM CaCl2; western blot; both purified

B2: T2-WARS (endogenous) (domain or fragment, UniProt P23381 94-471)
chain: SAKGIDYDKLIVRFGSSKIDKELINRIERATGQRPHHFLRRGIFFSHRDMNQVLDAYENKKPFYLYTGRGPSSEAMHVGHLIPFIFTKWLQDVFNVPLVIQMTDDEKYLWKDLTLDQAYSYAVENAKDIIACGFDINKTFIFSDLDYMGMSSGFYKNVVKIQKHVTFNQVKGIFGFTDSDCIGKISFPAIQAAPSFSNSFPQIFRDRTDIQCLIPCAIDQDPYFRMTRDVAPRIGYPKPALLHSTFFPALQGAQTKMSASDPNSSIFLTDTAKQIKTKVNKHAFSGGRDTIEEHRQFGGNCDVDVSFMYLTFFLEDDDKLEQIRKDYTSGAMLTGELKKALIEVLQPLIAEHQARRKEVTDEIVKEFMTPRKLSFDFQ
binding [2]: no binding

B3: VE-cadherin (receptor, UniProt P33151 48-784)
chain: DWIWNQMHIDEEKNTSLPHHVGKIKSSVSRKNAKYLLKGEYVGKVFRVDAETGDVFAIERLDRENISEYHLTAVIVDKDTGENLETPSSFTIKVHDVNDNWPVFTHRLFNASVPESSAVGTSVISVTAVDADDPTVGDHASVMYQILKGKEYFAIDNSGRIITITKSLDREKQARYEIVVEARDAQGLRGDSGTATVLVTLQDINDNFPFFTQTKYTFVVPEDTRVGTSVGSLFVEDPDEPQNRMTKYSILRGDYQDAFTIETNPAHNEGIIKPMKPLDYEYIQQYSFIVEATDPTIDLRYMSPPAGNRAQVIINITDVDEPPIFQQPFYHFQLKENQKKPLIGTVLAMDPDAARHSIGYSIRRTSDKGQFFRVTKKGDIYNEKELDREVYPWYNLTVEAKELDSTGTPTGKESIVQVHIEVLDENDNAPEFAKPYQPKVCENAVHGQLVLQISAIDKDITPRNVKFKFILNTENNFTLTDNHDNTANITVKYGQFDREHTKVHFLPVVISDNGMPSRTGTSTLTVAVCKCNEQGEFTFCEDMAAQVGVSIQAVVAILLCILTITVITLLIFLRRRLRKQARAHGKSVPEIHEQLVTYDEEGGGEMDTTSYDVSVLNSVRRGGAKPPRPALDARPSLYAQVQKPPRHAPGAHGGPGEMAAMIEVKKDEADHDGDGPPYDTLHIYGYEGSESIAESLSSLGTDSSDSDVDYDFLNDWGPRFKMLAELYGSDPREELLY
binding [3]: binds

B5: full length tryptophanyl-tRNA synthetase (endogenous) (enzyme, UniProt P23381 1-471)
chain: MPNSEPASLLELFNSIATQGELVRSLKAGNASKDEIDSAVKMLVSLKMSYKAAAGEDYKADCPPGNPAPTSNHGPDATEAEEDFVDPWTVQTSSAKGIDYDKLIVRFGSSKIDKELINRIERATGQRPHHFLRRGIFFSHRDMNQVLDAYENKKPFYLYTGRGPSSEAMHVGHLIPFIFTKWLQDVFNVPLVIQMTDDEKYLWKDLTLDQAYSYAVENAKDIIACGFDINKTFIFSDLDYMGMSSGFYKNVVKIQKHVTFNQVKGIFGFTDSDCIGKISFPAIQAAPSFSNSFPQIFRDRTDIQCLIPCAIDQDPYFRMTRDVAPRIGYPKPALLHSTFFPALQGAQTKMSASDPNSSIFLTDTAKQIKTKVNKHAFSGGRDTIEEHRQFGGNCDVDVSFMYLTFFLEDDDKLEQIRKDYTSGAMLTGELKKALIEVLQPLIAEHQARRKEVTDEIVKEFMTPRKLSFDFQ
binding [2]: no binding

The remaining lines, values ahead:

binding [1]: binds
B1: recombinant Fc-tagged whole extracellular portion of human VE-Cadherin (Fc fusion, UniProt P33151 48-599)
chain: DWIWNQMHIDEEKNTSLPHHVGKIKSSVSRKNAKYLLKGEYVGKVFRVDAETGDVFAIERLDRENISEYHLTAVIVDKDTGENLETPSSFTIKVHDVNDNWPVFTHRLFNASVPESSAVGTSVISVTAVDADDPTVGDHASVMYQILKGKEYFAIDNSGRIITITKSLDREKQARYEIVVEARDAQGLRGDSGTATVLVTLQDINDNFPFFTQTKYTFVVPEDTRVGTSVGSLFVEDPDEPQNRMTKYSILRGDYQDAFTIETNPAHNEGIIKPMKPLDYEYIQQYSFIVEATDPTIDLRYMSPPAGNRAQVIINITDVDEPPIFQQPFYHFQLKENQKKPLIGTVLAMDPDAARHSIGYSIRRTSDKGQFFRVTKKGDIYNEKELDREVYPWYNLTVEAKELDSTGTPTGKESIVQVHIEVLDENDNAPEFAKPYQPKVCENAVHGQLVLQISAIDKDITPRNVKFKFILNTENNFTLTDNHDNTANITVKYGQFDREHTKVHFLPVVISDNGMPSRTGTSTLTVAVCKCNEQGEFTFCEDMAAQVGVSIQ

binding [4]: binds weakly
B4: recombinant purified tag-free human FL-WARS (enzyme, UniProt P23381 1-471)
chain: B5 chain
